Each structure is given as a SMILES string. The full ranking holds about 110,000 compounds; the median of “z-score” is about -0.1, and the highest 2% start at about 2. Some of the results follow.

For this assay, the target named is Metabotropic glutamate receptor 8 (Rattus norvegicus) (UniProt P70579). Description: rat mGluR8 modulators via GIRK flux, primary screen, cell-based, thallium flux, HTS (AID 488969). To be noted: HEK293 rat mGluR8, GIRK (G protein-gated inwardly rectifying potassium channel) thallium flux, FluoZin2; at 10 µM; stronger effect = higher value; submaximal glutamate (EC20) added with thallium.
UniProt P70579, sequence (P70579 whole entry, looked up): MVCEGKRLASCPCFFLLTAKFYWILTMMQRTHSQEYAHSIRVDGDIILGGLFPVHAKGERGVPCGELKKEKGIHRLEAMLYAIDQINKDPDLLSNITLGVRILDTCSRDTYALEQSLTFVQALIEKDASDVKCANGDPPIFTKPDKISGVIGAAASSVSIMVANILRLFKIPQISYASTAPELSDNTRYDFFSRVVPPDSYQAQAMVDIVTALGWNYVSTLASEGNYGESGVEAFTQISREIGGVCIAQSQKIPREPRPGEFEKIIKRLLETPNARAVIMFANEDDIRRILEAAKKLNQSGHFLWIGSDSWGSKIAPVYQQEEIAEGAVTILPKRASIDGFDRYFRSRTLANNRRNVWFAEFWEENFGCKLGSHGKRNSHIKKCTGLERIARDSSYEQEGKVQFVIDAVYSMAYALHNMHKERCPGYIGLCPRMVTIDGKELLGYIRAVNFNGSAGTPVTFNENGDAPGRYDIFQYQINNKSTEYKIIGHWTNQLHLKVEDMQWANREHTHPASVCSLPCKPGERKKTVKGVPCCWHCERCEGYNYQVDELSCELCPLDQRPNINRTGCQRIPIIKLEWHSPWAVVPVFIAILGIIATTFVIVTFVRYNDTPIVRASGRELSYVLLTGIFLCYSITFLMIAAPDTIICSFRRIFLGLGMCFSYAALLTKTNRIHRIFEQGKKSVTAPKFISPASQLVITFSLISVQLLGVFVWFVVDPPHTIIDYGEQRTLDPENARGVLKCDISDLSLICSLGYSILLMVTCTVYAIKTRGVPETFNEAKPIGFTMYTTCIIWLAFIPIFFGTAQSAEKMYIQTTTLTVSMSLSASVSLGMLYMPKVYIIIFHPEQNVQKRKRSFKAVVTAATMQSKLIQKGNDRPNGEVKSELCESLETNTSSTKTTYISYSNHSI
Turning to `CCOC(=O)c1sc(NS(=O)(=O)c2ccccc2)nc1C`, the z-score is -0.12.
Under `Cc1nccn1CC(O)Cn1c2ccccc2c2ccccc21` (stereo not drawn) stands 2; under `O=c1c(Cl)c(NCCCO)cnn1-c1nc2ccccc2[nH]1`, 0.128.
`Cc1ccc(-c2cc(C(=O)NCCCN3CCOCC3)no2)cc1` came in with a z-score of -0.133.
In the case of `CCOC(=O)/C(C#N)=N\Nc1ccc(S(=O)(=O)Nc2nc(C)cc(C)n2)cc1` it was -0.0878; in that of `CCn1cc(C(=O)OCC(=O)c2cc(C)n(-c3ccccc3F)c2C)c(=O)c2ccc(C)nc21`, -0.711; in that of `COc1cc(C(=O)NCCN2CCCC2)cc(OC)c1OC`, -0.00934.
In the case of `CC1CCCN(C(=O)c2cccc(S(=O)(=O)Nc3cc(C(F)(F)F)ccc3Cl)c2)C1` (stereo not drawn) it was -0.43.
Compound `O=[N+]([O-])c1ccc(N/N=C\c2ccccc2OCc2ccccc2)cc1` yielded a z-score of 0.105.
In the case of `NC(=O)CS(=O)(=O)c1nc2ccccc2n1Cc1ccccc1F` it was 0.0397; in that of `CCCC1(C(=O)OCC)NC(c2cc(OC)c(OC)c(OC)c2)C2C(=O)N(CC)C(=O)C21` (stereo not drawn), -0.129; in that of `O=C1CCCCCN1Sc1ccccc1`, -1.11.
`COc1cccc(C(=O)Nc2cccc(OCC(=O)O)c2)c1` came in with a z-score of -1.2.
As for `CC(C)(C)c1ccc(C(=O)NC(=S)Nc2sc3c(c2C#N)CCC3)cc1`, the z-score was -0.0657.
Compound `CCN1C(=O)NC2=C(C(=O)c3ccccc32)C1c1ccccc1F` (stereo not drawn) registered a z-score of -0.323.
In the case of `CN1CCN(CCCCC(=O)c2ccccc2)CC1` it was -0.0889; in that of `O=C(COC(=O)CNC(=O)C12CC3CC(CC(C3)C1)C2)Nc1ccccc1`, 1.89; in that of `Cc1cc(C)cc(NC(=S)NCCN2CCOCC2)c1`, -0.112.
In the case of `Nn1cc(-c2ccccc2)nc1SCC(=O)N1CCN(S(=O)(=O)c2ccccc2)CC1` it was -0.317.
Under `CCc1cccc(NS(=O)(=O)c2ccc3c(c2)oc(=O)n3C)c1` stands 0.151; under `COc1ccc(/C(N)=N/OC(=O)c2cccc([N+](=O)[O-])c2)cc1OC`, 0.272; under `Cc1nc2sc(C(c3ccc(F)cc3)N3CCOCC3)c(O)n2n1` (stereo not drawn), 0.149.
Turning to `CCOC(=O)N1CCN(CC(=O)Nc2ccc(C)c(Br)c2)CC1`, the z-score is -0.241.
In turn, `CC(C)(C)N(NC(=O)Nc1ccccc1)C(=O)c1ccccc1Cl` gave a z-score of 0.107.
Under `CSCCNC(C)=O` stands -0.316; under `N#Cc1c2c(c(Nc3ccc(O)cc3)n3c1nc1ccccc13)CCC2`, 0.181.
On to `C/C=C/C=N/Nc1nc(-c2ccc([N+](=O)[O-])cc2)cs1`, for which the z-score was -0.273.
In the case of `Nc1c(NCCCN2CCOCC2)c2ccccc2oc1=O` it was -0.3.
Under `CCCCSc1nnc([C@@H]2CCCN2C(=O)OC(C)(C)C)o1` stands 0.0915; under `O=C(Nc1ccc(Cl)c(Cl)c1)Oc1ccc(NC(=O)c2ccco2)cc1`, -0.288; under `O=S(=O)(NCc1csc(-c2cccnc2)n1)c1ccc2c(c1)OCCO2`, 2.01.
`CCOC(=O)c1sc2nc(C)nc(SCC(=O)NC(C)CCc3ccccc3)c2c1C` (stereo not drawn) displayed a z-score of -0.115.
Under `COc1ccc(-c2cc(C(=O)Nc3ccccc3SC)no2)cc1` stands -0.29; under `O=C(Nc1ccccc1NC(=O)NC1CCCCC1)NC1CCCCC1`, -1.04.
Compound `Cc1ccc(S(=O)(=O)N(C)c2c(C)ccc(S(=O)(=O)Nc3ccncc3)c2C)cc1` gave a z-score of -0.0477.
Under `c1ccc(OCCOCCN2CCOCC2)cc1` stands -0.145; under `CC(=NCCc1ccccc1)C1=C(O)CCC1=O`, -0.157; under `CCOc1ccccc1OCc1nn2c(COc3ccccc3)nnc2s1`, -0.56.
Under `CCCNC(=O)C1CCN(c2ccc(S(=O)(=O)N3CCOCC3)cc2Cl)CC1` stands -0.0395; under `N/C(=N\c1nc2c(c(=O)[nH]1)CCC2)Nc1ccccc1`, 0.214.
For `CC/C(O)=C(\C#N)c1nnc2n1CCCCC2`, the z-score worked out at 0.151.
Under `Cc1nc2c(Br)cc(Br)cc2cc1O` stands -0.787; under `Cc1ccc(-c2csc(NC(=O)c3ccc(-c4ccccc4)cc3)n2)o1`, 0.0391; under `COc1cccc(-c2nc(Cc3ccc(OC)c(OC)c3)no2)c1`, -0.0987.
Compound `CO/C([O-])=N/c1c[n+](-c2ccc(Cl)cc2)no1` came in with a z-score of 0.215.
In the case of `COCCCNC(=O)c1cccc(NC(=O)c2ccccc2)c1` it was -0.13; in that of `CCC(CC)C(=O)Nc1ccc(Sc2ccc([N+](=O)[O-])cc2)cc1`, -0.22; in that of `O=C(Cc1ccccc1)N/N=C/c1ccccc1F`, 0.38.
Compound `Cn1ncc(C#N)c1NC(=O)c1nn2cccnc2c1Cl` had a z-score of 0.268.
Under `O=C1CSc2ccc(C(=O)N3CCN(c4ccccn4)CC3)cc2N1` stands -0.908; under `CNc1nc(SC)nc(N2CCOCC2)n1`, 0.539; under `Cc1ccc(S(=O)(=O)N(C)CC(=O)OCC(=O)N2CCN(c3ccccc3)CC2)cc1`, -0.485.
Regarding `N#Cc1nc(COc2ccccc2)oc1N1CCCC1`, the z-score was -0.693.
Regarding `COc1ccc(C/C(C)=N/NC(=S)Nc2ccc(C)c(C)c2)cc1`, the z-score is 1.65.
Consider `CCCCNC(=S)NC1CCCC1`, for which the z-score was -0.0844.
The compound `Cc1ccc(S(=O)(=O)N2CCN(C(=O)CN3CCOCC3)C2c2ccccc2)cc1` (stereo not drawn) had a z-score of -0.22.
Turning to `COC(=O)CN(c1ccc(OC)cc1)S(=O)(=O)c1ccc(OC)c(OC)c1`, the z-score stood at 0.17.
Under `OCCN=C1CCCc2c1[nH]c1ccc(Br)cc21` stands 0.379; under `CC(=O)Nc1ccc(NC(=O)CSc2ccc(C)cc2)cc1`, 0.00682.
Under `Cc1ccccc1CS(=O)(=O)Cc1ccc(C(=O)NCCCN2CCCC2=O)o1` stands 0.731; under `O=C(c1cccs1)N1CCN(S(=O)(=O)N2CCOCC2)CC1`, -0.194.
Under `Cc1ccc(NC(=O)Nc2nnc(Cc3ccc([N+](=O)[O-])cc3)s2)cc1` stands -0.166.
In the case of `COc1ccc(CCC(=O)NC(C)C)cc1`, the z-score turned out to be 0.289.
In the case of `CCOCCn1c(COc2ccccc2)nc2ccccc21` it was -1.53.
As to `COc1ccc(NC(=O)CSc2nnc(-c3ccccn3)n2N)cc1`, the z-score was 0.609.
Under `O=C(NCCN=C1NS(=O)(=O)c2ccccc21)c1ccc(S(=O)(=O)N2CCOCC2)cc1` stands 0.246.
`Cc1ccc(NC(=O)C(C)c2ccc(-c3ccccc3)c(F)c2)c(C)c1` (stereo not drawn) registered a z-score of -0.182.
As for `Cc1ccccc1NC(=O)N1CCCC(c2nc(-c3ccc(F)cc3)no2)C1` (stereo not drawn), the z-score is -0.159.
In turn, `COc1ccc(CNC(=O)COC(=O)C2CC3C=CC2C3)cc1` (stereo not drawn) registered a z-score of -0.206.
In the case of `COc1ccc(-c2nc(CS(=O)CC(=O)NC3CCCc4ccccc43)c(C)o2)cc1OC` (stereo not drawn) it was -0.169; in that of `Cn1c(C(=O)NCCCN2CCCC2=O)cc2c(=O)n(C)c3ccccc3c21`, -0.963.
Under `O=C(CNS(=O)(=O)c1ccc(F)cc1)N1CCN(c2ccccc2)CC1` stands -0.501; under `Cc1ccsc1C(=O)NNC(=O)Nc1ccc(Cl)c(Cl)c1`, -0.13; under `O=C(CSc1nnc(Cn2nnc(-c3ccccc3)n2)n1-c1ccccc1)Nc1ccc(F)cc1`, -0.283.
In the case of `O=C(NCc1nnc2c3ccccc3c(-c3ccccc3)nn12)c1ccc(Cl)cc1` it was -0.606; in that of `Brc1c(OCCOCCn2cncn2)ccc2ccccc12`, 0.829.
Turning to `O=C(COC(=O)c1ccccc1NC(=O)c1ccccc1)c1ccc([N+](=O)[O-])cc1`, the z-score was -0.202.
In the case of `O=[N+]([O-])c1ccc2c(c1)C(N1CCOCC1)/C(=C/COc1ccc(F)cc1)O2` (stereo not drawn) it was -0.295.
`Cc1c(C(=O)NCc2ccccc2)oc2ccc(S(=O)(=O)N3CCCC3)cc12` yielded a z-score of 0.104.
As to `COC(=O)C1C2C=CC3(CN(C(C)C)C(=O)C13)O2` (stereo not drawn), the z-score was -0.0902.
On to `CC(C)COC(=O)C(C#N)c1nc2ccccc2nc1N1CCN(Cc2ccc3c(c2)OCO3)CC1` (stereo not drawn), for which the z-score is -0.426.
Under `CC(C)(C)C1CCC2(CC1)NC(CO)(CO)CO2` (stereo not drawn) stands 0.239.
`CC(=O)c1cc2c(cc1NC(=O)CCn1cccc1)OCO2` gave a z-score of -0.085.
In turn, `CC1CC(C)CN(S(=O)(=O)c2cccc3cccnc23)C1` (stereo not drawn) had a z-score of -0.494.
For `NC(=O)c1cccc2c(=O)oc3ccccc3c12`, the z-score is 0.0601.
In the case of `COc1ccc(N2CCN(C(=O)C3CC(O)CN3S(=O)(=O)c3ccc([N+](=O)[O-])cc3)CC2)cc1` (stereo not drawn) it was 0.00817; in that of `CNC(=O)CCCc1nc(-c2ccccc2Cl)no1`, 0.0193; in that of `CNc1ccc(Br)cc(C(=O)/C=C/c2ccc(OC)cc2)c1=O`, 0.019.
Under `CC(C)C1OC2(C)OC(=N)C1(C#N)C(C#N)(C#N)C2c1ccccc1` (stereo not drawn) stands -0.139.
`CC(C)(C)C(=O)NC(NC(=S)Nc1sc2c(c1C#N)CCCC2)C(Cl)(Cl)Cl` (stereo not drawn) registered a z-score of -0.0454.
With `CCn1c2ccccc2c2cc(CN3CCN(S(=O)(=O)Cc4ccccc4)CC3)ccc21`, the z-score was -0.382.
Under `O=c1cc2c(nn1Cc1cccc(Cl)c1)-c1ccccc1CC2` stands -0.336.
In the case of `COc1cccc2c1OC1(C)CC2NC(=O)N1` (stereo not drawn) it was -0.2; in that of `CCCOc1cccc(CN2CCCCC2c2cccnc2)c1` (stereo not drawn), -0.422.
In the case of `Cc1ccc(Nc2nc(N)c([N+](=O)[O-])c(N3CCOCC3)n2)cc1C` it was -0.153; in that of `C/C=C/c1ccc(OCCCCn2cncn2)c(OC)c1`, -0.124; in that of `Nc1nncn1C(=O)c1cc(Br)ccc1Cl`, -0.0769.
`CCOc1ccccc1N(CC(=O)N1CCCCCC1)S(C)(=O)=O` yielded a z-score of 0.193.
With `Cc1csc(Sc2nc3c(c(=O)[nH]c(=O)n3C)n2CCCc2ccccc2)n1`, the z-score was -0.516.
Turning to `CCn1c(N)c(C(=O)NC2CCCCC2)sc1=S`, the z-score is -0.324.
In the case of `Cc1cc(C)nc(SCc2cc(=O)c(OC(=O)c3ccc(Br)o3)co2)n1` it was -0.521; in that of `COc1ccccc1N1CCN(C(=O)CN(c2cc(C)cc(C)c2)S(C)(=O)=O)CC1`, 0.122.
Under `COc1ccccc1N1CCN(S(=O)(=O)c2cc(C)sc2C)CC1` stands -0.63; under `Cc1ccc(/C=C/C(=O)N2CCCN(C(=O)/C=C/c3ccc(C)cc3)CC2)cc1`, -0.643.
In the case of `Cc1cccc(-n2c(=O)c3c(n4cnnc24)-c2ccccc2CC32CCCCC2)c1` it was -0.863; in that of `N#CCSc1nc(Nc2ccc3c(c2)OCO3)c2ccccc2n1`, -0.556; in that of `CC(=O)OCCc1c(C)nc2nc[nH]n2c1=O`, -1.4.
With `COc1ccc(N(CC(O)Cn2c3ccccc3c3ccccc32)S(=O)(=O)c2ccccc2)cc1` (stereo not drawn), the z-score is -0.0828.
Compound `O=c1oc2c(CN3CCOCC3)c(O)ccc2c2c1CCC2` registered a z-score of 0.00993.
In the case of `Cc1ccccc1CN1CCN(C/C=C/c2ccccc2)CC1` it was 0.147.
`c1coc(CNC2CCCCCCC2)c1` had a z-score of 0.687.
In the case of `O=C(O)Cn1c(SCc2cccc3ccccc23)nc2ccccc21`, the z-score amounted to 1.11.
In the case of `Cc1c(C(=O)OCC(C)C)[nH]c2c1C(=O)CC(c1ccco1)C2` (stereo not drawn) it was 0.605.

(Values after PubChem BioAssay AID488969 (Vanderbilt High Throughput Screening Facility, 2010).)
